This is one part of the list.
Key:
Assay in all cases: glycan array binding signal (z-score within array); higher = stronger binding
Conditions in all cases: glycan notation: IUPAC condensed, linker removed
Fuc(a1-2)Gal = molecular target: Fuc(a1-2)Gal
Summary of the method: (§1)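 The Consortium for Functional Glycomics database supplied 3228 glycan arrays, of which those lacking an available protein sequence were dropped. The binding signal, a within-array Z-score, was averaged across arrays of the same protein sequence and across linkers. Negative scores can be read as non-binding.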

Fuc(a1-2)Gal(b1-3)GalNAc = molecular target: Fuc(a1-2)Gal(b1-3)GalNAc
Summary of the method: as §1

[1] = molecular target: Fuc(a1-2)Gal(b1-3)GalNAc(a1-3)[Fuc(a1-2)]Gal(b1-4)Glc
Summary of the method: as §1

[2] = molecular target: Fuc(a1-2)Gal(b1-3)GalNAc(a1-3)[Fuc(a1-2)]Gal(b1-4)GlcNAc
Summary of the method: as §1

[3] = molecular target: Fuc(a1-2)Gal(b1-3)GalNAc(b1-3)Gal
Summary of the method: as §1

[4] = molecular target: Fuc(a1-2)Gal(b1-3)GalNAc(b1-3)Gal(a1-4)Gal(b1-4)Glc
Summary of the method: as §1

[5] = molecular target: Fuc(a1-2)Gal(b1-3)GalNAc(b1-4)[Neu5Ac(a2-3)]Gal(b1-4)Glc
Summary of the method: as §1

Fuc(a1-2)Gal(b1-3)GlcNAc = molecular target: Fuc(a1-2)Gal(b1-3)GlcNAc
Summary of the method: as §1

[6] = molecular target: Fuc(a1-2)Gal(b1-3)GlcNAc(b1-2)Man(a1-3)[Fuc(a1-2)Gal(b1-3)GlcNAc(b1-2)Man(a1-6)]Man(b1-4)GlcNAc(b1-4)GlcNAc
Summary of the method: as §1

[7] = molecular target: Fuc(a1-2)Gal(b1-3)GlcNAc(b1-2)Man(a1-3)[Fuc(a1-2)Gal(b1-3)GlcNAc(b1-2)Man(a1-6)]Man(b1-4)GlcNAc(b1-4)[Fuc(a1-6)]GlcNAc
Summary of the method: as §1

[8] = molecular target: Fuc(a1-2)Gal(b1-3)GlcNAc(b1-3)Gal(b1-4)Glc
Summary of the method: as §1

[9] = molecular target: Fuc(a1-2)Gal(b1-3)GlcNAc(b1-3)GalNAc
Summary of the method: as §1

[10] = molecular target: Fuc(a1-2)Gal(b1-3)GlcNAc(b1-3)[Fuc(a1-2)Gal(b1-3)GlcNAc(b1-6)]GalNAc
Summary of the method: as §1

[11] = molecular target: Fuc(a1-2)Gal(b1-3)GlcNAc(b1-3)[Gal(b1-4)GlcNAc(b1-6)]Gal(b1-4)Glc
Summary of the method: as §1

[12] = molecular target: Fuc(a1-2)Gal(b1-3)GlcNAc(b1-3)[Neu5Ac(a2-6)Gal(b1-4)GlcNAc(b1-6)]Gal(b1-4)Glc
Summary of the method: as §1

[13] = molecular target: Fuc(a1-2)Gal(b1-3)GlcNAc6S
Summary of the method: as §1

[14] = molecular target: Fuc(a1-2)Gal(b1-3)[Fuc(a1-4)]GlcNAc
Summary of the method: as §1

[15] = molecular target: Fuc(a1-2)Gal(b1-3)[Fuc(a1-4)]GlcNAc(b1-2)Man(a1-3)[Fuc(a1-2)Gal(b1-3)[Fuc(a1-4)]GlcNAc(b1-2)Man(a1-3)]Man(b1-4)GlcNAc(b1-4)GlcNAc
Summary of the method: as §1

[16] = molecular target: Fuc(a1-2)Gal(b1-3)[Fuc(a1-4)]GlcNAc(b1-2)Man(a1-3)[Fuc(a1-2)Gal(b1-3)[Fuc(a1-4)]GlcNAc(b1-2)Man(a1-6)]Man(b1-4)GlcNAc(b1-4)[Fuc(a1-6)]GlcNAc(b1-4)[Fuc(a1-6)]GlcNAc
Summary of the method: as §1

[17] = molecular target: Fuc(a1-2)Gal(b1-3)[Fuc(a1-4)]GlcNAc(b1-3)[Fuc(a1-3)[Gal(b1-4)]GlcNAc(b1-6)]Gal(b1-4)Glc
Summary of the method: as §1

[18] = molecular target: Fuc(a1-2)Gal(b1-3)[Fuc(a1-4)]GlcNAc(b1-3)[Gal(b1-4)GlcNAc(b1-6)]Gal(b1-4)Glc
Summary of the method: as §1

Fuc(a1-2)Gal(b1-4)Glc = molecular target: Fuc(a1-2)Gal(b1-4)Glc
Summary of the method: as §1

Fuc(a1-2)Gal(b1-4)Glc6S = molecular target: Fuc(a1-2)Gal(b1-4)Glc6S
Summary of the method: as §1

Fuc(a1-2)Gal(b1-4)GlcNAc = molecular target: Fuc(a1-2)Gal(b1-4)GlcNAc
Summary of the method: as §1

[19] = molecular target: Fuc(a1-2)Gal(b1-4)GlcNAc(b1-2)Man
Summary of the method: as §1

[20] = molecular target: Fuc(a1-2)Gal(b1-4)GlcNAc(b1-2)Man(a1-3)[Fuc(a1-2)Gal(b1-4)GlcNAc(b1-2)Man(a1-6)]Man(b1-4)GlcNAc(b1-4)GlcNAc
Summary of the method: as §1

[21] = molecular target: Fuc(a1-2)Gal(b1-4)GlcNAc(b1-2)Man(a1-3)[Fuc(a1-2)Gal(b1-4)GlcNAc(b1-2)Man(a1-6)]Man(b1-4)GlcNAc(b1-4)[Fuc(a1-6)]GlcNAc
Summary of the method: as §1

[22] = molecular target: Fuc(a1-2)Gal(b1-4)GlcNAc(b1-2)[Fuc(a1-2)Gal(b1-4)GlcNAc(b1-4)]Man(a1-3)[Fuc(a1-2)Gal(b1-4)GlcNAc(b1-2)Man(a1-6)]Man(b1-4)GlcNAc(b1-4)GlcNAc
Summary of the method: as §1

[23] = molecular target: Fuc(a1-2)Gal(b1-4)GlcNAc(b1-3)Gal(b1-4)GlcNAc
Summary of the method: as §1

[24] = molecular target: Fuc(a1-2)Gal(b1-4)GlcNAc(b1-3)Gal(b1-4)GlcNAc(b1-2)Man(a1-3)[Fuc(a1-2)Gal(b1-4)GlcNAc(b1-3)Gal(b1-4)GlcNAc(b1-2)Man(a1-6)]Man(b1-4)GlcNAc(b1-4)GlcNAc
Summary of the method: as §1

[25] = molecular target: Fuc(a1-2)Gal(b1-4)GlcNAc(b1-3)Gal(b1-4)GlcNAc(b1-3)Gal(b1-4)GlcNAc
Summary of the method: as §1

[26] = molecular target: Fuc(a1-2)Gal(b1-4)GlcNAc(b1-3)GalNAc
Summary of the method: as §1

[27] = molecular target: Fuc(a1-2)Gal(b1-4)GlcNAc(b1-3)[Fuc(a1-2)Gal(b1-4)GlcNAc(b1-6)]GalNAc
Summary of the method: as §1

[28] = molecular target: Fuc(a1-2)Gal(b1-4)GlcNAc(b1-3)[Fuc(a1-3)[Gal(b1-4)]GlcNAc(b1-6)]Gal(b1-4)Glc
Summary of the method: as §1

[29] = molecular target: Fuc(a1-2)Gal(b1-4)GlcNAc(b1-6)GalNAc
Summary of the method: as §1

[30] = molecular target: Fuc(a1-2)Gal(b1-4)GlcNAc6S
Summary of the method: as §1

[31] = molecular target: Fuc(a1-2)Gal(b1-4)[Fuc(a1-3)]GlcNAc
Summary of the method: as §1

[32] = molecular target: Fuc(a1-2)Gal(b1-4)[Fuc(a1-3)]GlcNAc(b1-2)Man(a1-3)[Fuc(a1-2)Gal(b1-4)[Fuc(a1-3)]GlcNAc(b1-2)Man(a1-6)]Man(b1-4)GlcNAc(b1-4)[Fuc(a1-6)]GlcNAc
Summary of the method: as §1

[33] = molecular target: Fuc(a1-2)Gal(b1-4)[Fuc(a1-3)]GlcNAc(b1-2)[Fuc(a1-2)Gal(b1-4)[Fuc(a1-3)]GlcNAc(b1-4)]Man(a1-3)[Fuc(a1-2)Gal(b1-4)[Fuc(a1-3)]GlcNAc(b1-2)Man(a1-6)]Man(b1-4)GlcNAc(b1-4)GlcNAc
Summary of the method: as §1

[34] = molecular target: Fuc(a1-2)Gal(b1-4)[Fuc(a1-3)]GlcNAc(b1-3)Gal(b1-4)[Fuc(a1-3)]GlcNAc
Summary of the method: as §1

[35] = molecular target: Fuc(a1-2)Gal(b1-4)[Fuc(a1-3)]GlcNAc(b1-3)Gal(b1-4)[Fuc(a1-3)]GlcNAc(b1-3)Gal(b1-4)[Fuc(a1-3)]GlcNAc
Summary of the method: as §1

[36] = molecular target: Fuc(a1-2)Gal(b1-4)[Fuc(a1-3)]GlcNAc(b1-3)GalNAc
Summary of the method: as §1

[37] = molecular target: Fuc(a1-2)Gal(b1-4)[Fuc(a1-3)]GlcNAc(b1-3)[Neu5Ac(a2-6)Gal(b1-4)GlcNAc(b1-6)]Gal(b1-4)Glc
Summary of the method: as §1

[38] = molecular target: Fuc(a1-2)Gal3S(b1-4)GlcNAc
Summary of the method: as §1

[39] = molecular target: Fuc(a1-2)Gal6S(b1-3)GlcNAc
Summary of the method: as §1

B1: Thrombomodulin (Mus musculus) (protein)
chain: ALAKLQPTGSQCVEHECFALFQGPATFLDASQACQRLQGHLMTVRSSVAADVISLLLSQSSMDLGPWIGLQLPQGCDDPVHLGPLRGFQWVTGDNHTSYSRWARPNDQTAPLCGPLCVTVSTATEAAPGEPAWEEKPCETETQGFLCEFYFTASC
glycan array binding signal (z-score) (Fuc(a1-2)Gal): -0.097
glycan array binding signal (z-score) (Fuc(a1-2)Gal(b1-3)GalNAc): -0.11
glycan array binding signal (z-score) [1]: 0.003
glycan array binding signal (z-score) [2]: -0.25
glycan array binding signal (z-score) [3]: -0.118
glycan array binding signal (z-score) [4]: 0.268
glycan array binding signal (z-score) [5]: -0.317
glycan array binding signal (z-score) (Fuc(a1-2)Gal(b1-3)GlcNAc): -0.262
glycan array binding signal (z-score) [6]: 0.05
glycan array binding signal (z-score) [7]: 0.263
glycan array binding signal (z-score) [8]: -0.119
glycan array binding signal (z-score) [9]: -0.228
glycan array binding signal (z-score) [10]: -0.155
glycan array binding signal (z-score) [11]: -0.012
glycan array binding signal (z-score) [12]: 0.033
glycan array binding signal (z-score) [13]: -0.284
glycan array binding signal (z-score) [14]: 0.227
glycan array binding signal (z-score) [15]: 0.555
glycan array binding signal (z-score) [16]: 0.279
glycan array binding signal (z-score) [17]: -0.334
glycan array binding signal (z-score) [18]: -0.262
glycan array binding signal (z-score) (Fuc(a1-2)Gal(b1-4)Glc): -0.284
glycan array binding signal (z-score) (Fuc(a1-2)Gal(b1-4)Glc6S): 0.107
glycan array binding signal (z-score) (Fuc(a1-2)Gal(b1-4)GlcNAc): 0.024
glycan array binding signal (z-score) [19]: -0.155
glycan array binding signal (z-score) [20]: 0.124
glycan array binding signal (z-score) [21]: 0.049
glycan array binding signal (z-score) [22]: 0.223
glycan array binding signal (z-score) [23]: -0.275
glycan array binding signal (z-score) [24]: -0.145
glycan array binding signal (z-score) [25]: -0.164
glycan array binding signal (z-score) [26]: -0.241
glycan array binding signal (z-score) [27]: -0.02
glycan array binding signal (z-score) [28]: -0.074
glycan array binding signal (z-score) [29]: -0.149
glycan array binding signal (z-score) [30]: -0.496
glycan array binding signal (z-score) [31]: -0.018
glycan array binding signal (z-score) [32]: -0.007
glycan array binding signal (z-score) [33]: 0.17
glycan array binding signal (z-score) [34]: -0.167
glycan array binding signal (z-score) [35]: -0.162
glycan array binding signal (z-score) [36]: -0.11
glycan array binding signal (z-score) [37]: -0.28
glycan array binding signal (z-score) [38]: -0.236
glycan array binding signal (z-score) [39]: -0.367

Source: the supplement of paper PMC8728848
